Test results taken from PubChem BioAssay AID1963576 (National Center for Advancing Translational Sciences (NCATS), 2024).
The whole screen tested about 46,000 compounds, of which about 60 (0.1%) were called active. Roughly 3% stayed inconclusive and do not appear here. Calls follow the shape of the dose curve; as a rule, active = well fitted inhibition curve with a large enough effect; inconclusive = small, poorly fitted or top-dose-only effect; inactive = no such curve, though single readings can be large or run the other way. This is one part of the list.

Assay: Primary qHTS assay for Inhibitors of ovarian cancer metastasis using an organotypic tumor microenvironment (TME) model. Also: nearly all actives have a fitted effect of over 65% in size.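 As to Potency: count of GFP cancer cells still attached after washing and fixation.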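 As to activity change, negative = inhibition: plate controls were DMSO wells for no effect and tomatine positive control wells for full effect.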
Details: SKOV3ip1-GFP adhesion/invasion on 3D omental model, fluorescence; series mostly up to 45.8 µM; activity change, negative = inhibition: at the top concentration
Summary of the method: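 qHTS, 4-pt dose (0.36-46 umol/L); SKOV3ip1-GFP, 1,200 cells/well, no FBS; primary omental fibroblast/mesothelial co-culture 48 h pre-grown; 2 h RT + 16 h 37 C; PBS wash, 4% PFA; GFP count 488/509 nm.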
Potency is read from the fitted curve at half-maximal effect.

Compound	outcome	activity change, negative = inhibition	Potency
COc1ccccc1NC(=O)Cn1c(=O)n(-c2cccc(Cl)c2)c(=O)c2sc3ccccc3c21	inactive		
COc1cc2[nH]c(=O)n(Cc3ccc(C(=O)NCc4ccc(C)cc4)cc3)c(=O)c2cc1OC	inactive		
Cc1cccc(CSc2nc(=O)c3c(n2C)NC(=O)CC3c2cccc(O)c2)c1 (centres undefined)		inactive: -10.2%	
Cc1ccc2c(c1)sc1nc(-c3cc4cc(Cl)ccc4oc3=O)cn12		inactive: 2.2%	
Cc1ccc(N2CC(NC(=O)Cc3ccc(F)cc3)CC2=O)cc1 (centres undefined)		inactive: -2.85%	
O=C1Cc2cc(S(=O)(=O)N3CCCCC3)cc3c2N1CCC3		inactive: 21.6%	
CC1=C(C(=O)Nc2cccc(C(F)(F)F)c2)C2(CCCCCC2)OC1=O		inactive: -34.6%	
Cc1cnc(NC(=O)Nc2cc(Br)c(C)cc2OC[C@@H]2CNCCO2)cn1		inactive: 3.77%	
O=C(Cn1c(=O)n(Cc2ccc(C(=O)NCc3ccc4c(c3)OCO4)cc2)c(=O)c2ccccc21)Nc1cccc(Cl)c1	inactive		
CCOc1ccc2nc(NC(=O)c3nc(SCc4ccc(C)cc4)ncc3Cl)sc2c1		inactive: -11%	
Nc1cc(C(F)(F)F)c(-c2cc(N3CCOCC3)nc(N3CCOCC3)n2)cn1		inactive: -11.4%	
CCOC(=O)CC(NS(=O)(=O)c1cc(-c2cc(C)no2)ccc1C)c1ccc(C)cc1 (centres undefined)		inactive: 9.02%	
COc1ccc(N2CCN(c3nc4ccccc4n4c(C)nnc34)CC2)cc1		inactive: 3.48%	
CC(C)CCn1c(=O)c2sccc2n2c(CCCC(=O)Nc3ccc(C(C)C)cc3)nnc12		inactive: 0.642%	
Cc1ccc(CSc2nncn3c2cc2sccc23)cc1		inactive: -23%	
CN(C(=O)CSc1nc2ccccc2[nH]1)c1ccc(F)cc1		inactive: -0.465%	
Cc1cccc(C)c1NC(=O)CN(C)S(=O)(=O)c1ccc2[nH]c3c(c2c1)CCCC3		inactive: -12.1%	
CC(C)COc1ccc(C(=O)N2CCC(c3nc4ccccc4s3)CC2)cc1	inactive		
Cc1ccc2occ(CC(=O)Nc3c(C(=O)Nc4ccc(Cl)cc4)oc4ccccc34)c2c1		inactive: 4.59%	
O=C(CC1N=C2c3ccccc3N=C(SCC(=O)Nc3ccccc3F)N2C1=O)NCc1ccc2c(c1)OCO2 (centres undefined)	inactive		
CCOC(=O)c1c(NC(=O)C(C)Sc2cn(CCNC(=O)c3ccc(OC)cc3)c3ccccc23)sc2c1CCC2 (centres undefined)	inactive		
CCCOCc1cc(CN2CCN(c3ccccc3OC)CC2)c(O)c2ncccc12	inactive		
COc1ccccc1NC(=O)C1=C(C)Nc2nc(SCC(=O)c3ccc(C)cc3)nn2C1c1ccc(F)cc1 (centres undefined)	inactive		
O=C(NCc1ccc(Cl)cc1)c1cnc(N2CCOCC2)c2ccccc12	inactive		

Compound	outcome	activity change, negative = inhibition	Potency
Cc1ccc(CSCCNC(=O)CN(c2cccc(C)c2C)S(=O)(=O)c2ccccc2)cc1	inactive		
Cc1cccc(N2C(=O)N(Cc3ccc(C(C)(C)C)cc3)c3ccccc3S2(=O)=O)c1		inactive: 0.353%	
CCC[C@H](NC(=O)C(C#N)=Cc1cccc(Br)n1)c1ccccc1			active: 11.8 µM
Cc1c(C(=O)Nc2ccc(N3C[C@@H](C)O[C@@H](C)C3)nc2)cccc1-c1ccc(OC(F)(F)F)cc1		inactive: 27.1%	
Cc1ccccc1CNC(=O)c1ccc(Cn2c(SCc3ccccc3)nc3cccnc32)cc1	inactive		
COCCCOc1ccnc(CS(=O)c2nc3ccccc3[nH]2)c1C (centres undefined)		inactive: 9.32%	
CC1CCCN(S(=O)(=O)c2cc(C(=O)NCCc3ccccc3)n(C)c2)C1 (centres undefined)		inactive: -3.83%	
COc1ccc(CNC(=O)c2ccc3c(c2)CCN3S(=O)(=O)c2ccccc2)cc1		inactive: -1.77%	
CCOc1ccc(Nc2oc(-c3ccc(COc4ccc(C)cc4)o3)nc2C#N)cc1		inactive: -17%	
CCn1cc(C(=O)NCc2ccccc2Cl)c(=O)c2cc(S(=O)(=O)N3CCCCCC3)ccc21	inactive		
CCc1ccc(C(=O)Nc2cccc(-c3nc4cc(C(C)C)ccc4o3)c2)cc1	inactive		
CC(=O)c1cccc(NC(=O)Nc2cc3c(cc2N2CCCC2)n(C)c(=O)n3C)c1	inactive		
Cc1ccc(Cl)cc1NC(=O)c1ccc2nc(CCc3ccccc3)oc2c1		inactive: -11.8%	
COc1ccc(CNc2nc(-c3ccco3)nn2C(=O)c2ccccc2C)cc1		inactive: -6.37%	
Cc1ccc(-c2nc(CNC(=O)NC3CCCCC3)c(C)o2)cc1		inactive: -2.3%	
Cc1ccc(C)c(NC(=O)Cn2c(=O)n(CC(=O)NCCc3ccccc3)c(=O)c3ccccc32)c1	inactive		
O=C(CCCn1c(=O)[nH]c2ccsc2c1=O)N1CCN(c2ccc(Cl)cc2)CC1		inactive: 56.9%	
CCOC(=O)c1sc2cccc(F)c2c1S(=O)(=O)Nc1ccccc1F		inactive: -13.2%	
O=C(CSc1nnc(-c2ccc(Cl)cc2)c(-c2ccc(Cl)cc2)n1)NC1CCCC1		inactive: 31.4%	
Cc1ccc(NC(=O)Cn2c(=O)cc(-c3ccccc3)c3c(C)nn(C)c32)c(Cl)c1		inactive: 4.28%	
O=S(=O)(c1ccccc1)c1nc(-c2ccco2)oc1SCc1ccc(F)cc1		inactive: 3.33%	
CCCCC(=O)Nc1ccc(C(=O)OCc2cc(=O)n3ccsc3n2)cc1		inactive: -7.99%	
COc1ccc(NC(=O)c2nnn(CC(=O)Nc3cc(C)cc(C)c3)c2N)c(OC)c1	inactive		
CCN(C(=O)c1cc(S(=O)(=O)N2CCCC2)cn1C)c1ccc(OC)cc1		inactive: -1.83%	

Compound	outcome	activity change, negative = inhibition	Potency
COc1ccc(Cn2c(SCc3ccc(C(=O)NCc4cccs4)cc3)nc3ccncc32)cc1		inactive: -9.19%	
CCOC(=O)CC(NC(=O)CCc1c(C)nc2cc(-c3ccccc3)nn2c1C)c1ccc(C)cc1 (centres undefined)		inactive: 12.9%	
COC(=O)c1ccc(NC(=O)CSc2nc3cc4ccccc4cc3[nH]2)cc1		inactive: 8.49%	
CCOCCCNC(=O)Cn1nc(CC)n2c(cc3c(OC)cccc32)c1=O		inactive: -12.9%	
O=C(Nc1cc(F)ccc1F)c1cnn2c(C(F)F)cc(-c3ccccc3)nc12		inactive: 7.66%	
COc1cc(OC)c(NC(=O)C(C)n2nc(-c3ccc(C)cc3)c3c(c2=O)CCCC3)cc1Cl (centres undefined)	inactive		
N#Cc1ccccc1NC(=O)C(=O)NCC(c1cccnc1)N1CCc2ccccc21 (centres undefined)		inactive: 19.5%	
COc1ccccc1-c1cc2nc(C)c(CCC(=O)NC3CCCCC3)c(C)n2n1		inactive: -9.62%	
Cc1ccc(S(=O)(=O)c2nnn3c2nc(N2CCN(c4cccc(C)c4C)CC2)c2ccccc23)cc1C		inactive: 0.479%	
Cc1ccc(NC(=O)C2CCCN(c3ncnc4onc(C)c34)C2)cc1Cl (centres undefined)		inactive: 0.243%	
O=C(c1ccccc1)c1ccc2nc(N3CCN(c4ccc(F)cc4)CC3)c3nncn3c2c1		inactive: 7.22%	
CC(=O)c1cc2c(cc1N/C(=N/S(=O)(=O)c1ccc(F)cc1)c1ccccc1)OCO2		inactive: 2.24%	
CCc1ccc(-c2nc(CSCC(=O)NCc3ccc(C)cc3)c(C)o2)cc1	inactive		
COc1ccc(CN2CCN(S(=O)(=O)c3ccc(NC(C)=O)cc3)CC2)c(OC)c1OC		inactive: -1.66%	
O=C(NC1CCCCC1)c1ccc2c(c1)N(Cc1cccc(Cl)c1)C(=O)c1ccccc1S2=O (centres undefined)		inactive: -17.4%	
CCN(Cc1ccccc1)C(=O)CCS(=O)(=O)c1ccc2c(c1)CCN2C(C)=O		inactive: -7.81%	
CCc1ccc(NC(=O)c2sc3nc(C)cc(C)c3c2NC(=O)c2ccccc2OC)cc1	inactive		
COc1cc(OC)c(NC(=O)CSc2cc(=O)n(C)c3ccc(Cl)cc23)cc1Cl		inactive: 39.4%	
CCOc1ccc(CCNC(=O)Cn2c(C)c3cnn(-c4ccccc4)c(=O)c3c2C)cc1	inactive		
O=C(NCc1ccco1)c1ccc2c(c1)N(Cc1cccc(Cl)c1)C(=O)c1ccccc1S2=O (centres undefined)		inactive: -20.6%	
O=C(Cn1ncc2c3ccccc3n(Cc3cccc(Cl)c3)c2c1=O)N1CCCCCC1		inactive: 2.91%	
Nc1ncc(S(=O)(=O)NCc2ccc(F)cc2)cn1		inactive: 7.36%	
Cc1ccc2[nH]c3c(=O)n(CC(=O)N4CCCC(C)C4)ncc3c2c1 (centres undefined)		inactive: 7.48%	
CC(C)c1cccc(C(C)C)c1NS(=O)(=O)c1cccs1	inactive		

Compound	outcome	activity change, negative = inhibition	Potency
CC(CCCc1ccccc1)NC(=O)c1nn(-c2ccc(Cl)cc2)nc1CO (centres undefined)		inactive: -2.2%	
Cc1ccccc1Cn1c2ccccc2c2cnn(CC(=O)NCCc3ccc(Cl)cc3)c(=O)c21	inactive		
CC(=O)c1cccc(Nc2nc(-c3ccccc3Cl)nc3ccccc23)c1	inactive		
Cc1cccc(OCCn2c(-c3ccc(Cl)cc3)nc3ccccc3c2=O)c1C	inactive		
CCOc1ccccc1NC(=O)c1cc2c(=O)[nH]c3ccccc3c2s1		inactive: 1.11%	
Cc1cccc2sc(N(Cc3cccnc3)C(=O)COc3ccccc3)nc12		inactive: 15.7%	
COc1ccc(C(=O)CCC(=O)Nc2cc(C)ccc2C)cc1		inactive: 0.276%	
CCOC(=O)c1c(C)[nH]c(C)c1S(=O)(=O)NCC(=O)N1CCN(c2ccccc2F)CC1	inactive		
COc1ccc(-c2nc3ccccc3s2)cc1NC(C)=O		inactive: 1.58%	
Cc1cc(C)c2c(-n3cccc3)c(C(=O)NCC(C)c3ccccc3)sc2n1 (centres undefined)		inactive: 0.239%	
COc1ccc(CNC(=O)C2CCN(S(=O)(=O)c3ccc4c(ccn4C)c3)CC2)cc1	inactive		
Cn1cc(-c2cc3n(n2)CCC(=O)N3CCCC(=O)Nc2ccccc2F)c2ccccc21	inactive		
COc1ccc(-c2nc(S(=O)(=O)c3ccc(C)cc3)c(NCc3ccccc3)o2)cc1		inactive: 0.796%	
Cc1cc(C)c2c(=O)c3c(oc2c1)C(=O)N(Cc1ccco1)C3c1ccccc1F (centres undefined)		inactive: 3.98%	
CCc1c(C)c(C#N)c2nc3ccccc3n2c1Nc1cccc(C(F)(F)F)c1		inactive: -6.69%	
CC(C)c1ccc(NC(=O)Cn2c(=O)oc3cc(S(=O)(=O)N4CCCC4)ccc32)cc1		inactive: 33.6%	
CCc1ccc(NC(=O)c2ccc(F)c(S(=O)(=O)N3CCN(c4cc(C)ccc4C)CC3)c2)cc1		inactive: -3.12%	
COc1ccc(Nc2nc(-c3ccccc3F)nc3ccccc23)cc1OC	inactive		
O=C(NCCCN1CCN(c2ccc(F)cc2)CC1)c1ccc2nc(CCc3ccccc3)oc2c1		inactive: -0.279%	
Cc1noc(-c2ccc(-c3noc(-c4ccc(C(F)(F)F)cc4)n3)cc2)n1		inactive: 5.37%	
COc1ccc(NC(=O)c2sc3nc4c(cc3c2N)CN(Cc2ccccc2)CC4)cc1OC	inactive		
Cc1c(C(=O)NCc2ccccc2Br)oc2ccc3c(c12)C(=O)CC(C)(C)O3		inactive: 9.49%	
